Several values for one entry are separate records, joined by “and”; a condition that tells them apart may be missing. Equal entries are not always repeated. In all, about 220,000 compounds went through this assay and about 5,700 (2.6%) were called active. This list was built around the results that the source calls inconclusive (neither active nor inactive); the mix of calls is not that of the screen. The call rests on the fitted dose curve; in most records, active means well fitted inhibition curve with a large enough effect; inconclusive means small, poorly fitted or top-dose-only effect; inactive means no such curve, though single readings can be large or run the other way. A potency beside an inconclusive call is a rough fit, not a confirmed value.
Molecular target: Lysine-specific demethylase 5B (Homo sapiens) (UniProt Q9UGL1)
Assay: Primary screen for KDM5B Histone Demethylases FDH-coupled qHTS; further: nearly all actives have a fitted effect of over 70% in size; on activity change, negative = inhibition: 0% is about no effect
Settings: FDH-coupled NADH fluorescence (FDH is formaldehyde dehydrogenase); activity change, negative = inhibition: at 57.7 µM (top of the series) unless noted
Procedure, shortened: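 Here, H3K4me3 peptide (12.5 µM in substrate mix) is demethylated by KDM5BΔAP, 200 nM final, after 10 min compound exposure. Formaldehyde product is coupled through FDH (0.25 U/mL in mix) to NADH fluorescence; 30-min ΔRFU feeds dose-response curves.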
Potency means the concentration at half of the fitted maximal effect; tags describe the fitted curve by direction and shape.

UniProt Q9UGL1, sequence (Q9UGL1 whole entry, looked up): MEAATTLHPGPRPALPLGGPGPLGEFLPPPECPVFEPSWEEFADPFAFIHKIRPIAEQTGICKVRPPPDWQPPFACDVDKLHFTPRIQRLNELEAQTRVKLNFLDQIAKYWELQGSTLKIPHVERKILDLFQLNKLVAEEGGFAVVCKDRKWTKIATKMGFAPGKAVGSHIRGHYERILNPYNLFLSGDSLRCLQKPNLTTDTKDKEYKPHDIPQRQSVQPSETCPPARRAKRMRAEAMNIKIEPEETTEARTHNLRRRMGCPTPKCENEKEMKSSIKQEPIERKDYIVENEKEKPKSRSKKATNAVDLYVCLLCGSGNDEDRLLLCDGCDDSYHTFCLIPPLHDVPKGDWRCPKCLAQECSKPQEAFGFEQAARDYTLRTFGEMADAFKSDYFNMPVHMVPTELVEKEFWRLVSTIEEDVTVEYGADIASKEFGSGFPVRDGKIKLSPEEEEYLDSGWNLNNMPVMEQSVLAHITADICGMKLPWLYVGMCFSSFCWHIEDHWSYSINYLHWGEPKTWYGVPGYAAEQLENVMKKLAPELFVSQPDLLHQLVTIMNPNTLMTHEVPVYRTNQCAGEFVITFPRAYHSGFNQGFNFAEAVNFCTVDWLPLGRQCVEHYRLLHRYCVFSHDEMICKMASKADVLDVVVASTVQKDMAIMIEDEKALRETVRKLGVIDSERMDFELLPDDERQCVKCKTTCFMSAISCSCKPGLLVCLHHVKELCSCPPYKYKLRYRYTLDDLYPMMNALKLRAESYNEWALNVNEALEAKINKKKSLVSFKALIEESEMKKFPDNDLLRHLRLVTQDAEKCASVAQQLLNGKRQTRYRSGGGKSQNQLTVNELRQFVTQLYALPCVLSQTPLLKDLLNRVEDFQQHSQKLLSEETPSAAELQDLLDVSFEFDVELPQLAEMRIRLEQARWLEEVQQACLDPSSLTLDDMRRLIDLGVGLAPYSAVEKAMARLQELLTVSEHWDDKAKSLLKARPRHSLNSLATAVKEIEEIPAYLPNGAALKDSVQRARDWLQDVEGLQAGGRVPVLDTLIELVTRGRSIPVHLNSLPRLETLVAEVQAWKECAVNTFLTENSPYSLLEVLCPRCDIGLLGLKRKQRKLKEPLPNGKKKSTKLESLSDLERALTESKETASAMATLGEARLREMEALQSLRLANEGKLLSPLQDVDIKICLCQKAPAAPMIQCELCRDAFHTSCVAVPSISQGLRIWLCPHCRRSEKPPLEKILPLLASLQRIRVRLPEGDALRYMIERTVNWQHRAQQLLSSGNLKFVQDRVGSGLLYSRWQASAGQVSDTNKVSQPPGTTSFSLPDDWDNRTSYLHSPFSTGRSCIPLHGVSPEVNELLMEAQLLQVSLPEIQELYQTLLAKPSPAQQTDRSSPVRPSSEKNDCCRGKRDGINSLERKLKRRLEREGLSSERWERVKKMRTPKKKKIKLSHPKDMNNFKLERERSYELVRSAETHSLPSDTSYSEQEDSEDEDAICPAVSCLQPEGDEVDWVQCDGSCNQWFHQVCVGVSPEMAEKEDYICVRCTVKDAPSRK

Row | SMILES | Potency | activity change, negative = inhibition
1 | CN1[C@@H](CCC(=O)N2CCC(O)CC2)CNC(=O)[C@@H]2[C@H]1CCN2Cc1ccc(O)cc1 | inactive | 
2 | CCOc1ccc(CNC(=O)c2ccc3c(c2)N(Cc2ccccc2)CCS3)cc1 | inconclusive: 25.1 µM [inhibitor, partial curve, poor fit] | 
3 | CCOC(=O)c1ccccc1NC(=O)N1CCCC(CN2CCc3ccccc3C2)C1 (centres undefined) | inconclusive: 25.1 µM [inhibitor, partial curve, poor fit] | 
4 | Cc1ccc(-c2noc(CCCC(=O)N3CCc4nc5cc(-c6ccccc6)[nH]n5c(=O)c4C3)n2)cc1 | inconclusive: 2.82 µM [inhibitor, full curve] | 
5 | Cc1noc(C)c1-c1cc2cc(CO)oc2c(NC2CCOCC2)n1 | active: 35.5 µM | 
6 | CCC(=O)N1Cc2ccccc2CC2(CCN(Cc3ccncc3)C2)C1 (centres undefined) | inconclusive: 50.1 µM [inhibitor, partial curve] | 
7 | COc1cccc(Nc2nc3ccccc3nc2NS(=O)(=O)c2cc(C)ccc2C)c1 | inactive | 
8 | COc1ccccc1N1CCN(C(=O)Cn2cccc2-c2nc(-c3ccccc3)no2)CC1 | inconclusive: 39.8 µM [inhibitor, single point] | 
9 | CC(C)NC(=O)C(C)c1ccc([N+](=O)[O-])cc1 (centres undefined) | inactive | 
10 | CC(C)CNc1ccc2c(n1)C(C)(C(=O)Nc1ccn(C)n1)CN(Cc1ccccc1)C2 (centres undefined) | inconclusive: 31.6 µM [inhibitor, single point] | 
11 | CC(=O)N1CCc2c(sc(NC(=O)CSc3ccc(F)cc3)c2-c2nc3ccccc3s2)C1 | inconclusive: 31.6 µM [inhibitor, partial curve, poor fit] | 
12 | Cc1nc2c(c(-c3ccc(O)cc3)n1)CN(Cc1ccc(OC(F)(F)F)cc1)CCC2 | inactive | 
13 | COc1cc(-c2nnc(SCCOc3ccccc3)o2)cc(OC)c1OC | inconclusive: 31.6 µM [inhibitor, partial curve, poor fit] | 
14 | COc1ccc(OC)c(C2C3=C(CCCC3=O)Nc3nc(SCc4ccccc4F)[nH]c(=O)c32)c1 (centres undefined) | inactive | 
15 | COc1cc(Cl)ccc1-c1cccc(CCOc2cnc3c(ccn3CC(=O)O)c2)c1 | inconclusive: 31.6 µM [inhibitor, partial curve, poor fit] | 
16 | COc1ccc(-c2cc(C(=O)NCc3cc(C)on3)c3c(c2)N(C)CCO3)cn1 | active: 35.5 µM | 
17 | Cc1cc(C)[nH]c(=S)n1 | inconclusive: 22.4 µM [inhibitor, partial curve, poor fit] | 
18 | COc1ccc(NC(=O)c2cc(NC(=O)C3CC3)cc3nc(C)ccc23)cc1 | inconclusive: 35.5 µM [inhibitor, single point] | 
19 | CC(C)OC(=O)N1CCC(COc2cnc3c(ccn3CC(N)=O)c2)CC1 | active: 39.8 µM | 
20 | CCNc1ncc(CN2CCCC(CCc3cccc(C(F)(F)F)c3)C2)cn1 (centres undefined) | inconclusive: 28.2 µM [inhibitor, partial curve, poor fit] | 
21 | Cc1oc2c(C)c3oc(=O)c(CCC(=O)N4CCCCC4)c(C)c3cc2c1C |  | inconclusive: -36.2% [inhibitor]
22 | CC(C)(C)c1ccc(C(=O)Nc2nnc3n2CCS3)cc1 | inconclusive: 20 µM [inhibitor, partial curve, poor fit] | 

Row | SMILES | Potency | activity change, negative = inhibition
23 | CC(Cn1cccn1)Nc1ccc(-c2nc(COc3ccccc3)no2)cn1 (centres undefined) | inconclusive: 31.6 µM [inhibitor, partial curve, poor fit] | 
24 | O=C(Nc1cccc(F)c1)N1C[C@@H]2C[C@H](C1)c1c(-c3cc4ccccc4s3)ccc(=O)n1C2 | inconclusive: 25.1 µM [inhibitor, single point] | 
25 | CCc1ccccc1NC(=O)COc1ccc(NC(=O)C2CC2)cn1 | inconclusive: 20 µM [inhibitor, partial curve, poor fit] | 
26 | CN1CC(=O)N(C2CCCC2)Cc2c(NC3CC3)ncnc21 | inconclusive: 89.1 µM [inhibitor, partial curve, poor fit] | 
27 | Cn1cccc1CN1C[C@@H](COc2ccncc2)[C@H](c2ccccn2)C1 | inconclusive: 35.5 µM [inhibitor, partial curve, poor fit] | 
28 | O=S(=O)(NC[C@H]1OC[C@@H](NCc2cccnc2)[C@@H]1O)c1ccccc1 | inactive | 
29 | CCc1sc(C(=O)OC(C)C(=O)Nc2cc(C)no2)cc1C (centres undefined) | inactive | 
30 | CC1(COc2cccnc2)COc2ccc(C(=O)NCCc3ccccc3)cc2N1 (centres undefined) | active: 35.5 µM | 
31 | O=C(COc1ccccc1)Nc1nc(-c2cccnc2)cs1 | inconclusive: 22.4 µM [inhibitor, single point] | 
32 | CCn1c(C)c(C)c2cc(C(=O)NCCc3cc(OC)ccc3OC)ccc21 | inconclusive: 31.6 µM [inhibitor, partial curve, poor fit] | 
33 | CC1=C[C@@H](CO)[C@H](C(C)C)C[C@H]1Cc1nnc(C(C)(C)C)o1 | inactive | 
34 | Cc1cc(=O)oc2cc(OCc3nc(-c4ccccc4)no3)ccc12 | inconclusive: 28.2 µM [inhibitor, partial curve, poor fit] | 
35 | Cc1cc2n(n1)CCC(=O)N2Cc1ccc(C(=O)NCc2cccs2)cc1 | inactive | 
36 | Cc1ccccc1Cn1cc(S(=O)(=O)c2ccc(F)cc2)c(=O)c2cc3c(cc21)OCO3 | inconclusive: 28.2 µM [inhibitor, partial curve, poor fit] | 
37 | Cc1cc(Cl)ccc1OCCSc1nnc(-c2cccs2)o1 | inconclusive: 35.5 µM [inhibitor, single point] | 
38 | O=C(NC1CC1)c1nc(-c2ccc(F)cc2)c2cnccn12 | active: 89.1 µM and active: 35.5 µM | 
39 | O=S(=O)(c1ccc2nc(Nc3ccc(Br)cc3F)ccc2c1)N1CCCCC1 | inconclusive: 31.6 µM [inhibitor, partial curve, poor fit] | 
40 | COc1ccccc1CCNC(=O)c1csc2ccccc12 | inactive | 
41 | CCSc1nc2sc3c(c2c(=O)n1-c1ccc(C)c(Cl)c1)CCN(C(C)=O)C3 | inconclusive: 35.5 µM [inhibitor, single point] | 
42 | CCOc1cccc(-c2cc(C(=O)O)c3cccc(C)c3n2)c1 | inconclusive: 31.6 µM [inhibitor, single point] | 
43 | COC(=O)c1ccc(NC(=O)Cn2nc(-n3nc(C)cc3C)ccc2=O)cc1 | inactive | 
44 | c1ccc2c(NCc3ccc4c(c3)OCO4)nc(-c3ccncc3)nc2c1 | inconclusive: 25.1 µM [inhibitor, single point] | 

Row | SMILES | Potency | activity change, negative = inhibition
45 | Cc1cccc(CSc2nnc([C@@H]3CCCN3)o2)c1 | inconclusive: 39.8 µM [inhibitor, single point] | 
46 | Cc1nc2cc(NC(C)C(=O)Nc3ccccc3C)ccc2o1 (centres undefined) | inconclusive: 39.8 µM [inhibitor, single point] | 
47 | S=c1nc(-c2cc(Cl)cc(Cl)c2)[nH][nH]1 | inconclusive: 22.4 µM [inhibitor, single point] | 
48 | COc1ccc(C(=O)c2sc(Nc3cccc(C(F)(F)F)c3)nc2N)cc1OC | inconclusive: 39.8 µM [inhibitor, single point] | 
49 | COc1ccc2c(C)c(CC(=O)Nc3nnc(C4CC4)s3)c(=O)oc2c1OC | inconclusive: 25.1 µM [inhibitor, partial curve, poor fit] | 
50 | COc1ccc(NC(=O)C2CC(=O)N(c3n[nH]c4cccc(F)c34)C2)cc1Cl (centres undefined) | inconclusive: 39.8 µM [inhibitor, single point] | 
51 | CCN1CCN(C(=O)C2CCc3ncc(-c4ccsc4)n3C2)CC1 (centres undefined) | inconclusive: 15.8 µM [inhibitor, partial curve, poor fit] | 
52 | c1cc(-c2cc(-c3cn[nH]c3)c3cncn3c2)cc(N2CCOCC2)c1 | inconclusive: 39.8 µM [inhibitor, partial curve, poor fit] | 
53 | COc1ccc(C2=NOC3(CCN([S+](=O)([O-])c4ccccc4)C3)C2)cc1 (centres undefined) | inconclusive: 31.6 µM [inhibitor, single point] | 
54 | O=c1cc(-c2ccncc2)oc2c(-c3cccc(CO)c3)nccc12 | active: 35.5 µM | 
55 | OC(CN1CCN(c2ccccc2Cl)CC1)c1ccccc1 (centres undefined) | inconclusive: 10 µM [inhibitor, partial curve, poor fit] | 
56 | CCCn1c(=O)[nH]c(=O)c2c1nc(-c1ccc(OCC#N)c(OC)c1)n2CCN1CCOCC1 | inactive | 
57 | COc1ccc(-n2nc(C3CCN(C(=O)Cc4ccccn4)CC3)[nH]c2=O)cc1 | inconclusive: 10 µM [inhibitor, partial curve] | 
58 | COc1ccc(-c2cc(C(F)(F)F)nc(SCC(=O)N(C)Cc3ccccc3)n2)cc1 | inconclusive: 31.6 µM [inhibitor, partial curve, poor fit] | 
59 | Cc1ccccc1N(C)C1CN(C(=O)OC(C)(C)C)C1 | inconclusive: 50.1 µM [inhibitor, partial curve, poor fit] | 
60 | COc1cc(OC)c2c(C)c(CC(=O)NCc3ccccc3OC)c(=O)oc2c1 | inconclusive: 1.78 µM [inhibitor, partial curve, poor fit] | 
61 | O=C(NCCc1ccc(Cl)cc1)c1cc2c(s1)-c1ccccc1OC2 | inconclusive: 5.62 µM [inhibitor, partial curve, poor fit] | 
62 | Clc1ccc(-c2nc3ccccc3o2)cc1 | inconclusive: 5.62 µM [inhibitor, partial curve, poor fit] | 
63 | Cc1noc(C)c1-c1cccc(CCOc2cnc3c(ccn3CC(=O)O)c2)c1 | active: 39.8 µM | 
64 | O=C1CCN(C(=O)[C@@H]2CCCN2Cc2ccc(C(F)(F)F)cc2)CCCCCCN1 | inconclusive: 39.8 µM [inhibitor, single point] | 
